Data reported in PubChem BioAssay AID887 (National Center for Advancing Translational Sciences (NCATS), 2007).
Several values for one entry are separate records, joined by “and”; a condition that tells them apart may be missing. Identical values can stand only once. Out of some 74,000 compounds screened, about 1,100 (1.5%) were called active. The inconclusive results got no clear call from the source; some entries with a clear call stand among them for comparison. Calls follow the shape of the dose curve; as a rule, active = well fitted inhibition curve with a large enough effect; inconclusive = small, poorly fitted or top-dose-only effect; inactive = no such curve, though single readings can be large or run the other way. A potency beside an inconclusive call is a rough fit, not a confirmed value. Where a structure was tested more than once in an assay, its records may differ in their call.

target: Polyunsaturated fatty acid lipoxygenase ALOX15 (Homo sapiens) (UniProt P16050); assay: qHTS Assay for Inhibitors of 15-hLO (15-human lipoxygenase); conditions: purified 15hLO-1, xylenol orange hydroperoxide absorbance; activity change, negative = inhibition: at 57.1 µM (top of the series) unless noted; also: nearly all actives have a fitted effect of over 55% in size
How it was run: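 40 nM 15hLO-1 + cpd, 15 min RT; start w/ 50 uM AA (final), 6 min RT; stop/detect w/ 200 uM XO + 300 uM Fe(II) in 50 mM H2SO4, 30 min; A573/A405. Buffer 25 mM Hepes pH 7.5, 0.01% Triton X-100. No-enzyme wells as negative control.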
% is scaled to controls: 0 for no effect and ±100 for the full control effect; potency is read from the fitted curve at half-maximal effect; tags tell the direction and shape of the fitted curve.

Chain of UniProt P16050 (P16050 whole entry, looked up): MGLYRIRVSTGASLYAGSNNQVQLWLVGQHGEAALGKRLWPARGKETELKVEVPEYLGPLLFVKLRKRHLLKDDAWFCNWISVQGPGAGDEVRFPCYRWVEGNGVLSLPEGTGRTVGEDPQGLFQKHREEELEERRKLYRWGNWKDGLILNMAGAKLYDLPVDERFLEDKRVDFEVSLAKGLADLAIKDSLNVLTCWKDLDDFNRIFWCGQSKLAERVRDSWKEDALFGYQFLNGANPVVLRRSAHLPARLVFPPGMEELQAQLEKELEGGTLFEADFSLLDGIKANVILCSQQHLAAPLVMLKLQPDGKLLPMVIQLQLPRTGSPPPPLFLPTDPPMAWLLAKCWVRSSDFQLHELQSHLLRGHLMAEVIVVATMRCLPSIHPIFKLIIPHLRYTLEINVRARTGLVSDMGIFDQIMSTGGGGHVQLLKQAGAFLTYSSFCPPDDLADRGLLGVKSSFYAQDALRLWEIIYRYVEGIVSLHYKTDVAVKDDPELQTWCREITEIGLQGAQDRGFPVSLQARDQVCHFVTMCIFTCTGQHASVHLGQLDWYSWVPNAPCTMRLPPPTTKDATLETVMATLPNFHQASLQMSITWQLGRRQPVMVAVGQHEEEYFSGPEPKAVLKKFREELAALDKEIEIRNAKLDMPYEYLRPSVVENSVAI

Question: `Cc1cc(Cc2cc(C)c(N)cc2N)c(N)cc1N` was tested. Which Potency did it give?
Answer: The Potency was inconclusive: 6.31 µM [inhibitor, single point].

Question: With `Cc1cccc(C2=NCC(=O)N(CC(=O)NCc3ccco3)c3sc4c(c32)CCCC4)c1` as the compound, how does the Potency read?
Answer: The Potency was active: 25.1 µM.

Question: Which Potency does the source give for `COc1cc(C(O)P(=O)(OC2CCCCC2)c2ccc(N(C)C)cc2)cc(OC)c1OC` (stereo not drawn) here?
Answer: Its Potency is inconclusive: 12.6 µM [inhibitor, partial curve].

Question: For `COc1ccc2[nH]c3c(c2c1)CCN=C3C`, which Potency is on record?
Answer: Its Potency is inconclusive: 6.31 µM [inhibitor, single point].

Question: `CC(C)Nc1ccc(Nc2ccccc2)cc1` was tested. Which Potency did it give?
Answer: Its Potency is inconclusive: 3.16 µM [inhibitor, full curve].

Question: For `O=[N+]([O-])c1cc(C(F)(F)F)cc([N+](=O)[O-])c1Cl`, which Potency is on record?
Answer: The Potency was inconclusive: 12.6 µM [inhibitor, partial curve].

Question: Which Potency does the source give for `Cc1ncc(CN2CC=C(c3ccccc3)CC2)c(N)n1` here?
Answer: The Potency was inconclusive: 39.8 µM [inhibitor, single point].

Question: With `COc1ccc(C(O)P(=O)(OC2CCCCC2)c2ccc(N(C)C)cc2)cc1OC` (stereo not drawn) as the compound, how does the Potency read?
Answer: Its Potency is inconclusive: 12.6 µM [inhibitor, partial curve].

Question: `COc1ccc(Cn2c(N)c(C(=O)NCc3ccco3)c3nc4ccccc4nc32)cc1` was tested. Which Potency did it give?
Answer: Its Potency is inconclusive: 12.6 µM [inhibitor, partial curve].

Question: Which Potency does the source give for `Cc1cnn(C2CCN(C)CC2)c1N` here?
Answer: Its Potency is inconclusive: 25.1 µM [inhibitor, single point].

Question: For `[CH3][Hg][Cl]`, which Potency is on record?
Answer: The Potency was active: 15.8 µM.

Question: How did the Potency turn out when `CC(C)CCNC(=O)c1c(N)n(CC2CCCO2)c2nc3ccccc3nc12` (stereo not drawn) was run?
Answer: Its Potency is inconclusive: 7.94 µM [inhibitor, partial curve].

Question: With `O=C1c2ccccc2C(=O)N1SC1CCCCC1` as the compound, how does the Potency read?
Answer: Its Potency is inconclusive: 39.8 µM [inhibitor, single point].

Question: Which Potency does the source give for `Clc1ccc(C(c2ccc(Cl)cc2)n2cc[n+](C[C@@H](OCc3ccc(Cl)cc3Cl)c3ccc(Cl)cc3Cl)c2)cc1` here?
Answer: Its Potency is active: 20 µM.

Question: For `COc1cc(C=C(C#N)C#N)cc(O)c1O`, which Potency is on record?
Answer: The Potency was inconclusive: 31.6 µM [inhibitor, single point].

Question: How did the Potency turn out when `CN(C)C(=O)C(CCN1CCC(O)(c2ccc(Cl)cc2)CC1)(c1ccccc1)c1ccccc1` was run?
Answer: The Potency was inconclusive: 15.8 µM [inhibitor, single point].

Question: For `N#CC1=C(N)Oc2n[nH]c(-c3cccs3)c2C1c1ccsc1` (stereo not drawn), which Potency is on record?
Answer: The Potency was active: 3.98 µM.

Question: How did the Potency turn out when `Nc1ncc([N+](=O)[O-])s1` was run?
Answer: The Potency was inconclusive: 39.8 µM [inhibitor, single point].

Question: Which Potency does the source give for `O=C(O)c1ccccc1C(=O)O` here?
Answer: The Potency was inconclusive: 39.8 µM [inhibitor, single point].

Question: For `Nc1c(C(=O)NCCN2CCOCC2)c2nc3ccccc3nc2n1Cc1ccco1`, which Potency is on record?
Answer: The Potency was active: 12.6 µM.

Question: For `COc1ccc(P2(=O)Nc3ccccc3N2)cc1`, which Potency is on record?
Answer: The Potency was inconclusive: 20 µM [inhibitor, partial curve].

Question: With `CCCC/C(C)=C/[C@@H](NP(=O)(c1ccccc1)c1ccccc1)c1ccccc1` as the compound, how does the Potency read?
Answer: Its Potency is inconclusive: 31.6 µM [inhibitor, single point].

Question: How did the Potency turn out when `CC(=O)C(Sc1ncnc2c1nnn2-c1ccc(F)cc1)C(=O)N(C)C` (stereo not drawn) was run?
Answer: Its Potency is inconclusive: 10 µM [inhibitor, partial curve].

Question: For `CCC(=NCc1ccc2c(c1)OCO2)c1c(O)n(C2CCCCC2)c(=O)[nH]c1=O`, which Potency is on record?
Answer: The Potency was inconclusive: 15.8 µM [inhibitor, partial curve].

Question: `Oc1ccc(Cl)cc1Cc1ccccc1` was tested. Which Potency did it give?
Answer: Its Potency is inconclusive: 39.8 µM [inhibitor, single point].

Question: With `NCCCCN=C(N)N` as the compound, how does the Potency read?
Answer: Its Potency is inconclusive: 12.6 µM [inhibitor, single point].

Question: With `CC[C@H]1C(=O)OC[C@H]1Cc1cncn1C` as the compound, how does the Potency read?
Answer: Its Potency is inconclusive: 39.8 µM [inhibitor, single point].

Question: For `C1=C(c2c[nH]c3ccccc23)CCNC1`, which Potency is on record?
Answer: The Potency was inconclusive: 12.6 µM [inhibitor, partial curve].

Question: Which Potency does the source give for `Cc1c(C(=O)c2cccc3ccccc23)c2cccc3c2n1[C@H](CN1CCOCC1)CO3` here?
Answer: Its Potency is inconclusive: 25.1 µM [inhibitor, single point].

Question: For `O=[N+]([O-])c1ccc2c3c(cccc13)CC2`, which Potency is on record?
Answer: The Potency was inconclusive: 20 µM [inhibitor, partial curve].

Question: For `CC(C)CN1CCCC2(CCN(C(=O)Oc3ccccc3)CC2)C1`, which Potency is on record?
Answer: Its Potency is inconclusive: 0.398 µM [inhibitor, full curve].

Question: Which Potency does the source give for `Oc1cc(O)c2c(c1)OC(c1cc(O)c(O)c(O)c1)C(O)C2` (stereo not drawn) here?
Answer: Its Potency is inconclusive: 31.6 µM [inhibitor, single point].

Question: For `O=NN(c1ccccc1)c1ccccc1`, which Potency is on record?
Answer: The Potency was inconclusive: 31.6 µM [inhibitor, single point].

Question: How did the Potency turn out when `CC(C)OC(=O)Nc1cccc(Cl)c1` was run?
Answer: Its Potency is inconclusive: 31.6 µM [inhibitor, single point].

Question: `NCCc1cc(O)c(O)cc1O` was tested. Which Potency did it give?
Answer: The Potency was inconclusive: 3.16 µM [inhibitor, partial curve].

Question: For `COC(=O)c1c(C)ccc2c(O)c3c(cc12)C(=O)c1c2c(cc(O)c1C3=O)[C@@]1(C)O[C@@](C)(O2)[C@@H](O)[C@H](N(C)C)[C@H]1O`, which Potency is on record?
Answer: The Potency was inconclusive: 1.26 µM [inhibitor, partial curve].

Question: For `Cc1ccc(S(=O)(=O)N(C)CCCC(=O)N2CCN(c3ccccn3)CC2)cc1`, which Potency is on record?
Answer: Its Potency is inconclusive: 31.6 µM [inhibitor, single point].

Question: `COc1cccc(N2CCN(Cc3ccc(Cl)cc3)CC2)c1` was tested. Which “activity change, negative = inhibition” value did it give?
Answer: The value was inactive: 8.74%.

Question: Which “activity change, negative = inhibition” value does the source give for `Cn1cc(CCC(=O)N2CCC3(CC2)OCCO3)c2ccccc21` here?
Answer: The value was inactive: -0.635%.

Question: For `Cc1c(OCC(F)(F)F)ccnc1CS(=O)c1nc2ccccc2[nH]1` (stereo not drawn), which Potency is on record?
Answer: Its Potency is “inactive and active: 25.1 µM”.

Question: Which “activity change, negative = inhibition” value does the source give for `Nc1cccc(Cl)c1` here?
Answer: The value was inactive: -6.8%.

Question: `c1cc2cc(c1)C[n+]1ccc(c3ccccc31)NCc1ccc(cc1)CNc1cc[n+](c3ccccc13)C2` was tested. Which Potency did it give?
Answer: The Potency was inconclusive: 12.6 µM [inhibitor, single point].

Question: How did the “activity change, negative = inhibition” value turn out when `Cc1nn(-c2ccccc2)c2c1C(c1ccc3c(c1)OCO3)SCC(=O)N2` (stereo not drawn) was run?
Answer: The value was inactive: -7.46%.

Question: Which Potency does the source give for `O=C(NC1(C(F)(F)F)Oc2ccc(Cl)cc2O1)N1CCC2(CC1)OCCO2` (stereo not drawn) here?
Answer: Its Potency is inconclusive: 10 µM [inhibitor, partial curve].

Question: Which Potency does the source give for `COC(=O)N(c1ccc(OC)cc1)P1(=S)OCCC(C)O1` (stereo not drawn) here?
Answer: The Potency was active: 3.98 µM.

Question: How did the Potency turn out when `CC(COc1ccccc1)N(CCCl)Cc1ccccc1` (stereo not drawn) was run?
Answer: The Potency was inconclusive: 25.1 µM [inhibitor, partial curve] and inconclusive: 31.6 µM [inhibitor, single point].

Question: Which activity change, negative = inhibition does the source give for `CCCOc1ccc2[nH]cc(C3=CCNCC3)c2n1` here?
Answer: Its activity change, negative = inhibition is inconclusive: -36.4% [inhibitor] [at 25.6 µM].

Question: For `COc1ccc(Cc2nccc3cc(OC)c(OC)cc23)cc1OC`, which Potency is on record?
Answer: Its Potency is inconclusive: 39.8 µM [inhibitor, single point].

Question: Which Potency does the source give for `CCCN1CCc2cccc3c2[C@@H]1Cc1ccc(O)c(O)c1-3` here?
Answer: The Potency was inconclusive: 0.316 µM [inhibitor, partial curve].

Question: For `Oc1ccc2c3c1O[C@@H]1c4[nH]c5c(c4C[C@@]4(O)[C@@H](C2)N(CC2CC2)CC[C@]314)C[C@]1(O)[C@@H]2Cc3ccc(O)c4c3[C@@]1(CCN2CC1CC1)[C@H]5O4`, which “activity change, negative = inhibition” value is on record?
Answer: The value was inactive: -0.675%.

Question: For `CCC(=NCCO)c1c(O)n(C2CCCCC2)c(=O)[nH]c1=O`, which “activity change, negative = inhibition” value is on record?
Answer: Its value is inactive: 5.98%.

Question: Which Potency does the source give for `COC(=O)N(c1ccccc1)P1(=S)OCCO1` here?
Answer: Its Potency is inconclusive: 15.8 µM [inhibitor, partial curve].

Question: With `CCN1CC=C(c2c[nH]c3ccccc23)CC1` as the compound, how does the Potency read?
Answer: Its Potency is inconclusive: 12.6 µM [inhibitor, partial curve].

Question: How did the Potency turn out when `Brc1c(Br)c(Br)c2n[nH]nc2c1Br` was run?
Answer: Its Potency is inconclusive: 20 µM [inhibitor, partial curve].

Question: `CCCCCCn1c(N)c(C(=O)NCCN2CCOCC2)c2nc3ccccc3nc21` was tested. Which Potency did it give?
Answer: Its Potency is active: 15.8 µM.

Question: For `O=[As](O)(O)c1ccc(Cc2ccc([As](=O)(O)O)cc2)cc1`, which Potency is on record?
Answer: Its Potency is inconclusive: 3.16 µM [inhibitor, partial curve].

Question: For `CN(C)/C=c1\sc2c(C#N)cc(C(=O)c3ccc(Br)cc3)n2c1=O`, which Potency is on record?
Answer: The Potency was inconclusive: 2.51 µM [inhibitor, full curve].

Question: How did the Potency turn out when `COc1ccccc1CN1CCN(C(=O)Cc2ccccc2)CC1` was run?
Answer: Its Potency is inconclusive: 3.98 µM [inhibitor, partial curve].

Question: `O=c1oc(Cl)c(Cl)c2ccccc12` was tested. Which Potency did it give?
Answer: The Potency was inconclusive: 12.6 µM [inhibitor, partial curve].

Question: How did the Potency turn out when `N#CC(Cl)Cl` was run?
Answer: The Potency was inconclusive: 31.6 µM [inhibitor, partial curve, poor fit].

Question: For `COc1nc(C)nc(Cl)c1NC1=NCCN1`, which Potency is on record?
Answer: The Potency was inconclusive: 25.1 µM [inhibitor, single point].

Question: How did the Potency turn out when `CC1=C(O)C(=O)C=C2C1=CC=C1[C@]2(C)CC[C@@]2(C)C3C[C@](C)(C(=O)O)CC[C@@]3(C)CC[C@@]12C` (stereo partly drawn) was run?
Answer: Its Potency is active: 3.98 µM.

Question: Which Potency does the source give for `COc1ccc(N2C(=O)CC(N3CC=C(c4ccccc4)CC3)C2=O)cc1` (stereo not drawn) here?
Answer: Its Potency is inconclusive: 31.6 µM [inhibitor, single point].

Question: For `C[C@H]1CCCC=CC2C[C@H](O)C[C@@H]2[C@H](O)/C=C\C(=O)O1` (stereo partly drawn), which Potency is on record?
Answer: The Potency was inconclusive: 15.8 µM [inhibitor, single point].

Question: With `C[C@@H](Cc1ccccc1)NCCC(c1ccccc1)c1ccccc1` as the compound, how does the Potency read?
Answer: The Potency was inconclusive: 15.8 µM [inhibitor, single point].

Question: `COP(=S)(OC)SCN1C(=O)c2ccccc2C1=O` was tested. Which Potency did it give?
Answer: The Potency was inconclusive: 31.6 µM [inhibitor, single point].

Question: `CC(C)CC(C)Nc1ccc(Nc2ccccc2)cc1` (stereo not drawn) was tested. Which Potency did it give?
Answer: The Potency was inconclusive: 3.16 µM [inhibitor, full curve].

Question: How did the Potency turn out when `CC(C)N1CC=C(c2c[nH]c3ccccc23)CC1` was run?
Answer: Its Potency is inconclusive: 20 µM [inhibitor, partial curve].
